Data taken from PubChem BioAssay (NCATS).
The inconclusive results got no clear call from the source; some entries with a clear call stand among them for comparison. Potencies beside an inconclusive call are fits to weak or partial responses and may not hold up. The source made the active and inactive calls. The call rests on the fitted dose curve; in most records, active means well fitted cell-killing curve with a large enough effect; inconclusive means small, poorly fitted or top-dose-only effect; inactive means flat fitted curve, though single readings scatter.

test: qHTS of pediatric cancer cell lines to identify multiple opportunities for drug repurposing: Primary screen for TC32 cells (AID 1347089); settings: TC32 Ewing sarcoma viability, CellTiter-Glo luminescence, 48 h; series mostly up to 45.8 µM; activity change, negative = cytotoxic: at the top concentration; further: nearly all actives have a fitted effect of over 60% in size; on activity change, negative = cytotoxic: on the % scale 0 is the no-effect control and ±100 the full control effect
Method in brief: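 A viability screen of TC32 cells was run over 48 h, with primary MIPE doses spanning 0.78 nM–46 µM and NPC doses 0.59 nM–46 µM. ATP luminescence (CellTiter-Glo) served as the read-out.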
Potency means the concentration at half of the fitted maximal effect; tags describe the fitted curve by direction and shape.

SMILES | activity change, negative = cytotoxic | Potency
N#CC1(c2ccc(NC(=O)c3cccnc3NCc3ccncc3)cc2)CCCC1 | inactive: 6.86% | –
Cc1ccc(N)cc1O | – | inconclusive: 38.2 µM [cytotoxic, single point]
Oc1cc(O)cc(C=Cc2ccc(O)c(O)c2)c1 | – | inconclusive: 16.5 µM [cytotoxic, partial curve, poor fit]
Cc1ccnc(NS(=O)(=O)c2ccc(N)cc2)n1 | inactive: 18.3% | –
Oc1ccc(OCc2ccccc2)cc1 | – | inconclusive: 16.5 µM [cytotoxic, partial curve]
Cc1cccc(C)c1NC(=O)c1ccccc1C(=O)O | inactive: 18.6% | –
NC(=O)Cc1cccc(C(=O)c2ccccc2)c1N | – | inactive
Cc1nc(NC(=O)N2CCC[C@@H]2C(N)=O)sc1-c1ccnc(C(C)(C)C(F)(F)F)c1 | – | inconclusive: 5.87 µM [cytotoxic, partial curve]
Nc1ccccc1N | – | inconclusive: 17.1 µM [cytotoxic, partial curve, poor fit]
COc1cc2c(Oc3ccc(NC(=O)C4(C(=O)Nc5ccc(F)cc5)CC4)cc3F)ccnc2cc1OCCCN1CCOCC1 | – | active: 5.87 µM
CCCC(=O)OC[C@@H](OC(=O)CCC)[C@@H](OC(=O)CCC)[C@H](Cn1c2nc(=O)[nH]c(=O)c-2nc2cc(C)c(C)cc21)OC(=O)CCC | inactive: 23.7% | –
S=c1[nH]c2ccccc2s1 | – | inconclusive: 67.9 µM [cytotoxic, partial curve, poor fit]
O=C1CN(/N=C/c2ccc([N+](=O)[O-])o2)C(=O)N1 | – | inconclusive: 18.7 µM [cytotoxic, single point]
CN1Cc2cc(C(=O)N3CCC(C4CCNCC4)CC3)ccc2N[C@@H](CC(=O)O)C1=O | inactive: 11.8% | –
O=c1c(-c2ccc(O)cc2)coc2cc(OC3O[C@H](CO)[C@H](O)[C@H](O)[C@H]3O)cc(O)c12 (stereo not given in full) | – | inconclusive: 18.6 µM [cytotoxic, partial curve, poor fit]
COc1ccc(O)cc1 | – | inconclusive: 13.3 µM [cytotoxic, partial curve]
Oc1cccc(-c2c3nc(c(-c4cccc(O)c4)c4ccc([nH]4)c(-c4cccc(O)c4)c4nc(c(-c5cccc(O)c5)c5ccc2[nH]5)CC4)C=C3)c1 | – | inconclusive: 33.3 µM [cytotoxic, partial curve, poor fit]
CNC(=O)c1ccc(C)c(-n2c(C)cc(OCc3ccc(F)cc3F)c(Br)c2=O)c1 | inactive: -11.5% | –
CO[C@H]1O[C@@H]2O[C@@]3(C)CC[C@@H]4[C@@H](C)CC[C@@H]([C@H]1C)[C@@]24OO3 | inactive: -1.76% | –
CC(C)(C(=O)NCC(F)(F)C(F)(F)F)C(=O)N[C@@H]1C(=O)Nc2ccccc2-c2ccccc21 | inactive: 4.24% | –
CCCn1cnc2c1c(=O)n(CCCCC(C)=O)c(=O)n2C | inactive: 14.6% | –
CC(C)(C)c1ccc(O)c(O)c1 | – | inconclusive: 38.2 µM [cytotoxic, single point]
CNC1CCCN(c2c(F)cc3c(=O)c(C(=O)O)cn(C4CC4)c3c2OC)C1 (stereo not given) | – | inconclusive: 16.5 µM [cytotoxic, partial curve, poor fit]
CCc1cccc(N(C)C(N)=Nc2cccc3ccccc23)c1 | – | inconclusive: 33.3 µM [cytotoxic, partial curve, poor fit]
Nc1nc(F)nc2c1ncn2[C@@H]1O[C@H](COP(=O)(O)O)[C@@H](O)[C@H]1O | – | inconclusive: 33 µM [cytotoxic, single point]
O=C(CCCl)NCc1ccccc1 | – | inconclusive: 2.36 µM [rising, partial curve, poor fit]

test: qHTS of pediatric cancer cell lines to identify multiple opportunities for drug repurposing: Primary screen for DAOY cells (AID 1347090); settings: DAOY medulloblastoma viability, CellTiter-Glo luminescence, 48 h; activity change, negative = cytotoxic: at 46 µM (top of the series) unless noted; further: nearly all actives have a fitted effect of over 55% in size;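 on activity change, negative = cytotoxic: plate controls were DMSO for no effect and bortezomib for full effect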
Method in brief: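 Cell viability, CellTiter-Glo luminescence; 500-1,000 cells/well, 8- or 11-point titration, 48 h compound exposure at 37 degrees C, 5% CO2. Controls: DMSO neutral, bortezomib 2.3 µM final as positive.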

SMILES | Potency | activity change, negative = cytotoxic
Nc1cc(C(F)(F)F)ccc1S | inconclusive: 33.5 µM [cytotoxic, single point] | –
Cc1ccc(N)cc1O | inconclusive: 48.6 µM [cytotoxic, single point] | –
Oc1cc(O)cc(C=Cc2ccc(O)c(O)c2)c1 | – | inactive: -18.1%
Cc1cccc(C)c1NC(=O)c1ccccc1C(=O)O | – | inactive: 9.48%
NC(=O)Cc1cccc(C(=O)c2ccccc2)c1N | inconclusive: 23.5 µM [cytotoxic, partial curve, poor fit] | –
Nc1ccccc1N | inconclusive: 30.6 µM [cytotoxic, partial curve] | –
COc1cc2nc(N3CCCN(C)CC3)nc(NC3CCN(Cc4ccccc4)CC3)c2cc1OC | active: 18.7 µM | –
Oc1cccc(-c2c3nc(c(-c4cccc(O)c4)c4ccc([nH]4)c(-c4cccc(O)c4)c4nc(c(-c5cccc(O)c5)c5ccc2[nH]5)CC4)C=C3)c1 | inconclusive: 26.6 µM [cytotoxic, single point] | –
CCCn1cnc2c1c(=O)n(CCCCC(C)=O)c(=O)n2C | – | inactive: 1.66%
